Test results: the supplement of paper PMC8728848
Some of the results follow.

Columns and labels:
Assay in all cases: glycan array binding signal (z-score within array); higher = stronger binding
Conditions in all cases: glycan notation: IUPAC condensed, linker removed
[1] = biological target: Man(a1-2)Man(a1-3)[Man(a1-2)Man(a1-6)]Man(a1-6)[Man(a1-2)Man(a1-2)Man(a1-3)]Man
Procedure, shortened: (§1)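 The Consortium for Functional Glycomics database supplied 3228 glycan arrays, of which those lacking an available protein sequence were dropped. The binding signal, a within-array Z-score, was averaged across arrays of the same protein sequence and across linkers. Negative scores can be read as non-binding.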

[2] = biological target: Man(a1-2)Man(a1-3)[Man(a1-2)Man(a1-6)]Man(a1-6)[Man(a1-2)Man(a1-2)Man(a1-3)]Man(b1-4)GlcNAc(b1-4)GlcNAc
Procedure, shortened: as §1

[3] = biological target: Man(a1-2)Man(a1-3)[Man(a1-6)]Man(a1-6)[Man(a1-2)Man(a1-3)]Man(b1-4)GlcNAc(b1-4)GlcNAc
Procedure, shortened: as §1

[4] = biological target: Man(a1-2)Man(a1-6)[Man(a1-3)]Man(a1-6)[Man(a1-2)Man(a1-2)Man(a1-3)]Man
Procedure, shortened: as §1

[5] = biological target: Man(a1-2)Man(a1-6)[Man(a1-3)]Man(a1-6)[Man(a1-2)Man(a1-2)Man(a1-3)]Man(b1-4)GlcNAc(b1-4)GlcNAc
Procedure, shortened: as §1

Man(a1-3)[Man(a1-6)]Man = biological target: Man(a1-3)[Man(a1-6)]Man
Procedure, shortened: as §1

[6] = biological target: Man(a1-3)[Man(a1-6)]Man(a1-6)[Man(a1-2)Man(a1-3)]Man(b1-4)GlcNAc(b1-4)GlcNAc
Procedure, shortened: as §1

[7] = biological target: Man(a1-3)[Man(a1-6)]Man(a1-6)[Man(a1-3)]Man
Procedure, shortened: as §1

[8] = biological target: Man(a1-3)[Man(a1-6)]Man(a1-6)[Man(a1-3)]Man(b1-4)GlcNAc(b1-4)GlcNAc
Procedure, shortened: as §1

[9] = biological target: Man(a1-3)[Man(a1-6)]Man(b1-4)GlcNAc(b1-4)GlcNAc
Procedure, shortened: as §1

[10] = biological target: Man(a1-3)[Man(a1-6)]Man(b1-4)GlcNAc(b1-4)[Fuc(a1-6)]GlcNAc
Procedure, shortened: as §1

Man(a1-6)Man = biological target: Man(a1-6)Man
Procedure, shortened: as §1

Man(b1-4)GlcNAc = biological target: Man(b1-4)GlcNAc
Procedure, shortened: as §1

MurNAc(b1-4)GlcNAc = biological target: MurNAc(b1-4)GlcNAc
Procedure, shortened: as §1

Neu5Ac(a2-3)Gal = biological target: Neu5Ac(a2-3)Gal
Procedure, shortened: as §1

[11] = biological target: Neu5Ac(a2-3)Gal(b1-3)GalNAc
Procedure, shortened: as §1

[12] = biological target: Neu5Ac(a2-3)Gal(b1-3)GalNAc(b1-3)Gal(a1-4)Gal(b1-4)Glc
Procedure, shortened: as §1

[13] = biological target: Neu5Ac(a2-3)Gal(b1-3)GalNAc(b1-4)[Neu5Ac(a2-3)]Gal(b1-4)Glc
Procedure, shortened: as §1

[14] = biological target: Neu5Ac(a2-3)Gal(b1-3)GalNAc(b1-4)[Neu5Ac(a2-8)Neu5Ac(a2-3)]Gal(b1-4)Glc
Procedure, shortened: as §1

[15] = biological target: Neu5Ac(a2-3)Gal(b1-3)GalNAc6S
Procedure, shortened: as §1

[16] = biological target: Neu5Ac(a2-3)Gal(b1-3)GlcNAc
Procedure, shortened: as §1

[17] = biological target: Neu5Ac(a2-3)Gal(b1-3)GlcNAc(b1-2)Man
Procedure, shortened: as §1

[18] = biological target: Neu5Ac(a2-3)Gal(b1-3)GlcNAc(b1-2)Man(a1-3)[GlcNAc(b1-4)][Neu5Ac(a2-3)Gal(b1-3)GlcNAc(b1-2)Man(a1-6)]Man(b1-4)GlcNAc(b1-4)GlcNAc
Procedure, shortened: as §1

[19] = biological target: Neu5Ac(a2-3)Gal(b1-3)GlcNAc(b1-2)Man(a1-3)[Neu5Ac(a2-3)Gal(b1-3)GlcNAc(b1-2)Man(a1-6)]Man(b1-4)GlcNAc(b1-4)GlcNAc
Procedure, shortened: as §1

[20] = biological target: Neu5Ac(a2-3)Gal(b1-3)GlcNAc(b1-3)Gal(b1-3)GlcNAc
Procedure, shortened: as §1

[21] = biological target: Neu5Ac(a2-3)Gal(b1-3)GlcNAc(b1-3)Gal(b1-4)GlcNAc
Procedure, shortened: as §1

[22] = biological target: Neu5Ac(a2-3)Gal(b1-3)GlcNAc(b1-3)GalNAc
Procedure, shortened: as §1

[23] = biological target: Neu5Ac(a2-3)Gal(b1-3)GlcNAc(b1-4)Gal(b1-4)Glc
Procedure, shortened: as §1

[24] = biological target: Neu5Ac(a2-3)Gal(b1-3)GlcNAc(b1-6)GalNAc
Procedure, shortened: as §1

[25] = biological target: Neu5Ac(a2-3)Gal(b1-3)GlcNAc6S
Procedure, shortened: as §1

[26] = biological target: Neu5Ac(a2-3)Gal(b1-3)[Fuc(a1-4)]GlcNAc
Procedure, shortened: as §1

[27] = biological target: Neu5Ac(a2-3)Gal(b1-3)[Fuc(a1-4)]GlcNAc(b1-3)Gal(b1-3)[Fuc(a1-4)]GlcNAc
Procedure, shortened: as §1

[28] = biological target: Neu5Ac(a2-3)Gal(b1-3)[Fuc(a1-4)]GlcNAc(b1-3)Gal(b1-4)[Fuc(a1-3)]GlcNAc
Procedure, shortened: as §1

[29] = biological target: Neu5Ac(a2-3)Gal(b1-3)[GlcNAc(b1-6)]GalNAc
Procedure, shortened: as §1

[30] = biological target: Neu5Ac(a2-3)Gal(b1-3)[Neu5Ac(a2-6)]GalNAc
Procedure, shortened: as §1

[31] = biological target: Neu5Ac(a2-3)Gal(b1-3)[Neu5Ac(a2-6)]GlcNAc(b1-3)[Fuc(a1-3)[Gal(b1-4)]GlcNAc(b1-6)]Gal(b1-4)Glc
Procedure, shortened: as §1

[32] = biological target: Neu5Ac(a2-3)Gal(b1-3)]Neu5Ac(a2-3)Gal(b1-4)]GlcNAc
Procedure, shortened: as §1

Neu5Ac(a2-3)Gal(b1-4)Glc = biological target: Neu5Ac(a2-3)Gal(b1-4)Glc
Procedure, shortened: as §1

[33] = biological target: Neu5Ac(a2-3)Gal(b1-4)GlcNAc
Procedure, shortened: as §1

[34] = biological target: Neu5Ac(a2-3)Gal(b1-4)GlcNAc(b1-2)Man
Procedure, shortened: as §1

[35] = biological target: Neu5Ac(a2-3)Gal(b1-4)GlcNAc(b1-2)Man(a1-3)[GlcNAc(b1-4)][Neu5Ac(a2-3)Gal(b1-4)GlcNAc(b1-2)Man(a1-6)]Man(b1-4)GlcNAc(b1-4)GlcNAc
Procedure, shortened: as §1

[36] = biological target: Neu5Ac(a2-3)Gal(b1-4)GlcNAc(b1-2)Man(a1-3)[Neu5Ac(a2-3)Gal(b1-4)GlcNAc(b1-2)Man(a1-6)]Man(b1-4)GlcNAc(b1-4)GlcNAc
Procedure, shortened: as §1

[37] = biological target: Neu5Ac(a2-3)Gal(b1-4)GlcNAc(b1-2)Man(a1-3)[Neu5Ac(a2-3)Gal(b1-4)GlcNAc(b1-2)Man(a1-6)]Man(b1-4)GlcNAc(b1-4)[Fuc(a1-6)]GlcNAc
Procedure, shortened: as §1

[38] = biological target: Neu5Ac(a2-3)Gal(b1-4)GlcNAc(b1-2)Man(a1-3)[Neu5Ac(a2-6)Gal(b1-4)GlcNAc(b1-2)Man(a1-6)]Man(b1-4)GlcNAc(b1-4)GlcNAc
Procedure, shortened: as §1

[39] = biological target: Neu5Ac(a2-3)Gal(b1-4)GlcNAc(b1-2)[Neu5Ac(a2-3)Gal(b1-4)GlcNAc(b1-4)]Man(a1-3)[GlcNAc(b1-4)][Neu5Ac(a2-3)Gal(b1-4)GlcNAc(b1-2)[Neu5Ac(a2-3)Gal(b1-4)GlcNAc(b1-6)]Man(a1-6)]Man(b1-4)GlcNAc(b1-4)GlcNAc
Procedure, shortened: as §1

B1: LngA (Escherichia coli) (protein)
chain: MLSVYNRTQKFKAEARKKIAKYHELRKQRGMSLLEVIIVLGIIGTIAAGVVILAQRAFDSRAVTDLVTNTNTVRVRMKDAYQRDGKYPDFVDPLSLTANTIKTDTSGIPAAQLVQLGKITPDEVRNNISGDFIAIGGALTSNGAQVKKGFAIELNGLSQEQCRSILGQVGNNWEYVAIGTSASGSYAMTATGVDMSVAASTTVLRSLGNNGQTTLTADKILSTCTAQVNSITLGSR
glycan array binding signal (z-score) [1]: -0.506 | glycan array binding signal (z-score) [2]: 0.647 | glycan array binding signal (z-score) [3]: -0.432 | glycan array binding signal (z-score) [4]: -0.41 | glycan array binding signal (z-score) [5]: -0.356 | glycan array binding signal (z-score) (Man(a1-3)[Man(a1-6)]Man): -0.411 | glycan array binding signal (z-score) [6]: -0.239 | glycan array binding signal (z-score) [7]: 0.228 | glycan array binding signal (z-score) [8]: 0.079 | glycan array binding signal (z-score) [9]: -0.323 | glycan array binding signal (z-score) [10]: -0.579 | glycan array binding signal (z-score) (Man(a1-6)Man): 3.82 | glycan array binding signal (z-score) (Man(b1-4)GlcNAc): -0.127 | glycan array binding signal (z-score) (MurNAc(b1-4)GlcNAc): -0.222 | glycan array binding signal (z-score) (Neu5Ac(a2-3)Gal): 0.012 | glycan array binding signal (z-score) [11]: -0.446 | glycan array binding signal (z-score) [12]: -0.375 | glycan array binding signal (z-score) [13]: -0.502 | glycan array binding signal (z-score) [14]: -0.253 | glycan array binding signal (z-score) [15]: 0.48 | glycan array binding signal (z-score) [16]: -0.325 | glycan array binding signal (z-score) [17]: 1.82 | glycan array binding signal (z-score) [18]: -0.454 | glycan array binding signal (z-score) [19]: 1.42 | glycan array binding signal (z-score) [20]: -0.31 | glycan array binding signal (z-score) [21]: -0.496 | glycan array binding signal (z-score) [22]: -0.349 | glycan array binding signal (z-score) [23]: 0.262 | glycan array binding signal (z-score) [24]: -0.541 | glycan array binding signal (z-score) [25]: 0.096 | glycan array binding signal (z-score) [26]: -0.568 | glycan array binding signal (z-score) [27]: -0.302 | glycan array binding signal (z-score) [28]: -0.356 | glycan array binding signal (z-score) [29]: -0.367 | glycan array binding signal (z-score) [30]: -0.196 | glycan array binding signal (z-score) [31]: -0.491 | glycan array binding signal (z-score) [32]: -0.173 | glycan array binding signal (z-score) (Neu5Ac(a2-3)Gal(b1-4)Glc): -0.299 | glycan array binding signal (z-score) [33]: -0.328 | glycan array binding signal (z-score) [34]: 3.6 | glycan array binding signal (z-score) [35]: -0.589 | glycan array binding signal (z-score) [36]: -0.485 | glycan array binding signal (z-score) [37]: -0.534 | glycan array binding signal (z-score) [38]: -0.503 | glycan array binding signal (z-score) [39]: -0.33
